The source of these data is PMC6919601, “Identification of Plasmodium dipeptidyl aminopeptidase allosteric inhibitors by high throughput screening” (PLoS ONE, 2019).

Hit rate of the full screen: of about 110,000 compounds, about 230 (0.21%) showed an effect of 50% or more. The list shows a part of the results.
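Further: 30 min substrate incubation versus DMSO and 10 µM JCP410 controls.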

The target of the test is DPAP1 (Plasmodium falciparum, UniProt Q8IIJ9). In words: primary screen, percent inhibition; read by cleavage of a fluorogenic dipeptide substrate; higher = more effect of the substance. The arrangement: species or system P. falciparum D10 trophozoite lysates; single well.
DPAP1, sequence (Q8IIJ9 whole entry, looked up): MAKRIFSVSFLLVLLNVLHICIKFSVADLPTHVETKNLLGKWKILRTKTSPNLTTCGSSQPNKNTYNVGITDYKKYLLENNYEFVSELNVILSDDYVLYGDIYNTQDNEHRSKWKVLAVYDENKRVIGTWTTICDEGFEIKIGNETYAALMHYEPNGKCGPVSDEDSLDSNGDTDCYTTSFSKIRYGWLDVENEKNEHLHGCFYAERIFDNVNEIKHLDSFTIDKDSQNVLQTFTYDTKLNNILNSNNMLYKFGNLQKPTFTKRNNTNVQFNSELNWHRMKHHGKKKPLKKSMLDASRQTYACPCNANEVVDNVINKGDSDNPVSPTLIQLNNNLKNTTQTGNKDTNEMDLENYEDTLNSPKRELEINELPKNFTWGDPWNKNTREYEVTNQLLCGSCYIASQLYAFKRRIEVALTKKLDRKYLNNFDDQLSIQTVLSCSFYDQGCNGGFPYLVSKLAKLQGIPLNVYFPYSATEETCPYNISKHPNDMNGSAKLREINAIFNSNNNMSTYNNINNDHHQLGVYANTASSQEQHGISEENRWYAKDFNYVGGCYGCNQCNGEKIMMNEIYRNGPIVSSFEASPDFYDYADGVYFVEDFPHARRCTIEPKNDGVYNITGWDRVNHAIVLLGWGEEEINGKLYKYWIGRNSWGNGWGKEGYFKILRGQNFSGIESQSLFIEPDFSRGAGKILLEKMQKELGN
With `COc1ccc(CC2(C)OC(c3cccs3)=NN2C(C)=O)cc1` (stereo not shown), the “% Inhibition @ 10 uM” value is -2.65%.

In the case of `COc1cc(C2c3c(-c4cc(C)ccc4O)n[nH]c3C(=O)N2CCCOC(C)C)ccc1O` (stereo not shown), the “% Inhibition @ 10 uM” value was determined as 3.81%.

Take `Cc1ccc(N2C(=O)C3C4CCC(O4)C3C2=O)nc1` (stereo not shown): the “% Inhibition @ 10 uM” value was -2.77%.

Take `CN(C)CCn1c(=O)n(C)c(=O)c2[nH]cnc21`: the “% Inhibition @ 10 uM” value is -4.82%.

Consider `Cc1ccc(NC(=O)c2ccncc2)c(Br)c1`, for which the “% Inhibition @ 10 uM” value is -0.48%.

With `O=C(NCC1CCCO1)c1ccc(COc2cccc3ccccc23)cc1` (stereo not shown), the “% Inhibition @ 10 uM” value was -5.57%.

Regarding `CC1(C)CC(=O)C2=C(C1)N(c1ccccc1)C(=O)CC2c1ccc(O)cc1` (stereo not shown), the “% Inhibition @ 10 uM” value amounted to 5.16%.

On to `CC(=O)N(Cc1c(C(=O)O)oc2cccc(O)c12)C(C)C`, for which the “% Inhibition @ 10 uM” value was 0.266%.

For the molecule `O=C(CNC(=S)N1CC2CC(C1)c1cccc(=O)n1C2)NCc1c(F)cc(F)cc1F` (stereo not shown), the “% Inhibition @ 10 uM” value is given as -0.519%.

As for `CCCCn1c(=O)[nH]c2nc3cc(N)ccc3nc2c1=O`, the “% Inhibition @ 10 uM” value is recorded as 4.15%.

As for `O=C(O)C1CC=CCC1C(=O)Nc1ccc2c(c1)OCCO2` (stereo not shown), the “% Inhibition @ 10 uM” value was -2.09%.

As to `c1ccc2c3c([nH]c2c1)-c1nonc1CC3`, the “% Inhibition @ 10 uM” value is -0.294%.

As to `CC(C)CCn1c(CO)nc2ccccc21`, the “% Inhibition @ 10 uM” value is listed as -6.36%.

For `COc1ccc(C2=N/C(=C\c3cccc4ccccc34)C(=O)O2)cc1OC`, the “% Inhibition @ 10 uM” value is given as 2.09%.

Consider `COc1cccc(S(=O)(=O)c2c(C)cc(C)cc2C)c1`, for which the “% Inhibition @ 10 uM” value is -2.51%.

For the molecule `Cc1ccc(CN2C(=O)N/C(=C/c3ccc(OC(C)C)cc3)C2=O)cc1`, the “% Inhibition @ 10 uM” value was 3.29%.

Take `CCOc1ccc(Br)cc1C(=O)NCCc1c[nH]c2ccccc12`: the “% Inhibition @ 10 uM” value is -3.64%.

As for `CCCCn1c(C(C)NC(=O)c2cc(OC)c(OC)c(OC)c2)nc2ccccc21` (stereo not shown), the “% Inhibition @ 10 uM” value is 9.77%.

Consider `Cc1cccc(NC(=O)c2cnn(-c3ccccc3)c2C)c1C`, for which the “% Inhibition @ 10 uM” value is reported as -0.884%.

As for `COCCCNC(=O)c1oc2ccc(S(=O)(=O)N(C)C3CCCCC3)cc2c1C`, the “% Inhibition @ 10 uM” value was determined as 12.1%.

For `CCOC(=O)c1c(NC(=O)C(C)SC2=NN3CCCC(=O)N=C3S2)sc2c1CCCC2` (stereo not shown), the “% Inhibition @ 10 uM” value was found to be 9.34%.

With `O=C(c1nsnc1-c1ccccc1O)N1CCCC1`, the “% Inhibition @ 10 uM” value is recorded as -1.07%.

Consider `Cc1ccc(Cn2c(=O)c3ccccc3n3c(-c4ccccc4F)nnc23)cc1`, for which the “% Inhibition @ 10 uM” value was found to be 3.3%.

For the molecule `CCOc1ccc(C(=O)Nc2ccc(CN3CCOCC3)cc2)cc1Cl`, the “% Inhibition @ 10 uM” value is recorded as 1.78%.

As for `COCCCNC(=O)CN1C(=O)c2ccccc2Sc2ncccc21`, the “% Inhibition @ 10 uM” value is on record as -0.397%.

For the molecule `CCOC(=O)C1=C(CN2CCC(c3ccc(C)cc3)C2)NC(=O)NC1c1ccc(Cl)cc1` (stereo not shown), the “% Inhibition @ 10 uM” value is reported as -2.83%.

In the case of `COc1cc(C2NC(C(=O)O)CS2)ccc1OCc1ccc(C)cc1` (stereo not shown), the “% Inhibition @ 10 uM” value was -2.92%.

With `O=C(Nc1ccccc1)c1cccc(N2C(=O)C3CC=CCC3C2=O)c1` (stereo not shown), the “% Inhibition @ 10 uM” value is given as -0.231%.

As for `CCCCCn1cc2c(c1-c1ccc(OC)cc1)c(=O)n(C)c(=O)n2C`, the “% Inhibition @ 10 uM” value is given as 3.62%.

Take `CCN(CC)CC#CCC(O)(c1ccccc1)c1ccccc1`: the “% Inhibition @ 10 uM” value was -2.15%.

On to `CCOc1ccccc1N1CCN(Cc2ccccc2C)CC1`, for which the “% Inhibition @ 10 uM” value was -3.56%.

Take `CCn1c(/N=C/c2ccc(OCCC(C)C)cc2)nc2ccccc21`: the “% Inhibition @ 10 uM” value came out at 3.04%.

For `COc1cc(C2NC(=O)NC(C)=C2C(=O)OCCc2ccccc2)ccc1O` (stereo not shown), the “% Inhibition @ 10 uM” value is on record as -1.03%.

`Cc1ccc(SCC(=O)Nc2ccccc2)cc1`: the “% Inhibition @ 10 uM” value is recorded as -0.864%.

With `COC(=O)Nc1ccccc1C(=O)NCc1ccc(Cl)cc1`, the “% Inhibition @ 10 uM” value is listed as -0.519%.

For `CCN(CCO)C(=O)c1cc(C(C)(C)C)cc(C(C)(C)C)c1`, the “% Inhibition @ 10 uM” value is listed as -10%.

In the case of `CC(NC(=O)Nc1ccc(Cl)c(Cl)c1)c1ccccc1` (stereo not shown), the “% Inhibition @ 10 uM” value stood at 4.34%.

For `CCOc1cccc2cc(-c3nc(-c4cccs4)no3)c(=O)oc12`, the “% Inhibition @ 10 uM” value turned out to be 9.63%.

As to `CCn1cc(C(=O)NC2CCCC(C)C2C)c2cc(OC)c(OC)cc2c1=O` (stereo not shown), the “% Inhibition @ 10 uM” value was -0.972%.

As to `CCOC(=O)c1cc(-c2ccc(F)cc2)n(CC(=O)Nc2cc(C)ccn2)c1C`, the “% Inhibition @ 10 uM” value is recorded as -7.35%.

As for `O=C(CN1C(=O)c2ccccc2S1(=O)=O)Nc1ccc(F)cc1F`, the “% Inhibition @ 10 uM” value is listed as -0.469%.

For `NC1=NC(c2cccnc2)n2c(nc3ccccc32)N1` (stereo not shown), the “% Inhibition @ 10 uM” value amounted to 5.3%.

`OCCOCCN1CCN(CC2CC3C=CC2C3)CC1` (stereo not shown): the “% Inhibition @ 10 uM” value is given as 0.472%.

As for `COc1ccccc1N1C(=O)NC(=O)/C(=C\c2ccc(O)cc2)C1=O`, the “% Inhibition @ 10 uM” value was -4.23%.

With `O=C(NCc1ccco1)c1cc2c(Cl)nc3ccccc3c2s1`, the “% Inhibition @ 10 uM” value is on record as 3.6%.

For `C1=C(CCNc2ncnc3c2nc2n3CCCCC2)CCCC1`, the “% Inhibition @ 10 uM” value worked out at 1%.

In the case of `Cc1nc2nc(SCc3cc(=O)n4c(C)cccc4n3)nn2c(C)c1Cc1ccccc1`, the “% Inhibition @ 10 uM” value was -0.519%.

As for `CN(Cc1ccccc1)S(=O)(=O)c1ccc(NC(=O)C2CC2)cc1`, the “% Inhibition @ 10 uM” value is -1.04%.

Turning to `N#CC1=C(N)Oc2c(ccc3ccccc23)C1c1ccc([N+](=O)[O-])cc1` (stereo not shown), the “% Inhibition @ 10 uM” value is -6.18%.

Turning to `CC(=O)NC(=O)/C(C#N)=C/Nc1ccc2ccccc2c1`, the “% Inhibition @ 10 uM” value is reported as -2.87%.

As for `O=c1c(-c2nc3ccccc3s2)c(C(F)(F)F)oc2cc(O)ccc12`, the “% Inhibition @ 10 uM” value is -0.597%.

Turning to `CC(C)C[C@H](NC(=O)c1ccc2c(c1)Cc1ccccc1-2)C(=O)NCC#N`, the “% Inhibition @ 10 uM” value stood at 4.33%.

On to `COc1ccc(NC(=O)CN(Cc2ccccc2)S(C)(=O)=O)cc1`, for which the “% Inhibition @ 10 uM” value was -1.52%.

`CC1CCCC(NC(=O)C2CCN(c3nc4ccccc4n4cccc34)CC2)C1C` (stereo not shown): the “% Inhibition @ 10 uM” value is reported as -6.66%.

On to `CCN(CC)c1nnc(-n2cccc2CN2CCN(c3ccccn3)CC2)s1`, for which the “% Inhibition @ 10 uM” value was -4.99%.

For `COc1ccc(N(CC(=O)N2CCc3ccccc3C2)S(=O)(=O)c2ccc(C)cc2)cc1`, the “% Inhibition @ 10 uM” value was determined as 1.96%.

Consider `CC(C)CC(C)(C)CNC(=O)N[C@@H](CC1CCCCC1)C(=O)NCC#N`, for which the “% Inhibition @ 10 uM” value is reported as -1.83%.

Regarding `N=C1/C(=C\c2ccc(SC3CCCCC3)o2)C(=O)N=C2SC=NN12`, the “% Inhibition @ 10 uM” value is 2.14%.

In the case of `Clc1cccc(N2CCN(CC3CC4C=CC3C4)CC2)c1` (stereo not shown), the “% Inhibition @ 10 uM” value stood at 0.472%.

With `CC(C)CNC(=O)c1cc(-c2ccco2)on1`, the “% Inhibition @ 10 uM” value is on record as -8.56%.

With `COC(=O)c1ccc(OCC(O)CN(CCO)CCO)cc1` (stereo not shown), the “% Inhibition @ 10 uM” value was 1.31%.

Consider `Cc1ccc(NC2=C(Cl)C(=O)N(Cc3ccccc3)C2=O)c(C)c1`, for which the “% Inhibition @ 10 uM” value is on record as -0.661%.

Consider `Cc1cccc2c1-c1sc(C(=O)N(C)Cc3ccco3)cc1CO2`, for which the “% Inhibition @ 10 uM” value was -4.85%.

`CC(C)C[C@H](NC(=O)c1ccc(OCc2cccnc2)cc1)C(=O)NCC#N`: the “% Inhibition @ 10 uM” value came out at 7.72%.
